Assay results as given in the supplement of paper PMC3334620.
Whole data set: some 33,000 sequences, median “E-score (-0.5 to 0.5)” near -0.043, cut for the highest 2% near 0.37. The list shows a part of the results.

Biological target: T1, Upc2 (UniProt Q12151)
T1 sequence: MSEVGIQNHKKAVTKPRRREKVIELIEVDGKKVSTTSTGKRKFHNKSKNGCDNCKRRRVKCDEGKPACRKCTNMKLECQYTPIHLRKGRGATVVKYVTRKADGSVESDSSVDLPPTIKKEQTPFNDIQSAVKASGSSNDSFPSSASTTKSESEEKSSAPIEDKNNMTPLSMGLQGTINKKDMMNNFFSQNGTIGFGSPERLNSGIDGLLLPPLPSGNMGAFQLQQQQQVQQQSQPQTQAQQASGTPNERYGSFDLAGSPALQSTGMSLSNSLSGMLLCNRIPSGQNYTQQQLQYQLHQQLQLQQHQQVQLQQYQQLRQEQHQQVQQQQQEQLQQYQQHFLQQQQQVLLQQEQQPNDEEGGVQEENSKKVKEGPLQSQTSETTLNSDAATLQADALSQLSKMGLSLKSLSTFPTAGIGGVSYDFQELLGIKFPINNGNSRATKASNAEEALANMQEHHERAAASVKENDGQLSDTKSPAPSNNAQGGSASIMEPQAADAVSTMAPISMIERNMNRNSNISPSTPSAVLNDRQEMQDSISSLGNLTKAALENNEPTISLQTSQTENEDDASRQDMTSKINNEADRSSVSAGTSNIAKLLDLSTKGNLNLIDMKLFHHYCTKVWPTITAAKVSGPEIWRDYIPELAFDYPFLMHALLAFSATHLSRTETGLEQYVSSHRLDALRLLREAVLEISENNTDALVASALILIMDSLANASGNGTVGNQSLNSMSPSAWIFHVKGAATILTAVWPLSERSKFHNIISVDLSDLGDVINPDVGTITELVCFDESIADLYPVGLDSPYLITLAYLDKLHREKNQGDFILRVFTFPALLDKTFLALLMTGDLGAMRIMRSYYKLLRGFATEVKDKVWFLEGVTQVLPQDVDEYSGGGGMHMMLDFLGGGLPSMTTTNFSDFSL
Test: PBM E-score (8-mer binding enrichment) (E-score (-0.5 to 0.5)); higher = stronger / more preferred TF binding; most listed sequences are background and not binding sites
Conditions: protein concentration: 200 nM; construct: GST-full length
How it was run: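 Yeast transcription factors, full-length or as DNA-binding domains, were expressed with a GST tag using PURExpress in vitro transcription/translation. At about 100-200 nM they were applied to universal all-10-mer Agilent arrays, double-stranded by primer extension on fresh or once-stripped slides. Fluorescent anti-GST detected bound protein, and masliner normalised the scans. E-scores for ungapped eight-base words, pooled with reverse complements, came from the Universal PBM Analysis Suite.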

Sequence	PBM E-score
ATAGATAA	0.0449
CACTGTAG	0.0248
CAGCACTG	-0.255
GGCAAGGA	-0.205
CCGGTAAA	0.0784
AAGAGAGC	-0.107
GATTGACA	-0.0586
AGGGTCTG	-0.308
AGTCTAAT	-0.11
CAGACCAG	-0.0598
CCTGTGCA	0.00225
AGACATTC	-0.073
CCAAAGAA	-0.083
AGAGCGCC	-0.0864
AGTACCGA	-0.0766
GCCACAAC	-0.0129
CCACAGGC	-0.376
AGCCATCG	0.0752
GACTGATC	-0.118
AAGCCCGC	-0.0467
ACGAGCCA	0.408
GATTGACC	-0.102
ACGAGGAG	0.306
AAGTGGGC	0.131
AAAAGTTT	0.0687

Sequence	PBM E-score
CGACCTCA	0.00368
CCCTACGA	0.245
ATGAACCA	-0.124
ATCAGCAT	-0.191
CCCAGAGA	-0.123
AATATACC	-0.0163
ACCATACC	-0.0989
CATGTGTC	-0.0516
CAACATTA	-0.0706
ATACCAAG	-0.0264
ACGTCGAC	0.118
ACCACTCT	-0.125
ACTCCTAC	-0.179
AGACTCGG	-0.222
CTGCCCAC	-0.198
GCATAAGC	-0.043
CCGTGGAA	-0.176
CCTGGCAG	-0.198
CCCTAACC	-0.165
TATGCTGA	-0.124
ACTGCAAA	-0.072
TGCGAGAA	0.129
CCTACTAA	-0.14
ACTTATCG	0.00736
CCGGTTCC	-0.144

Sequence	PBM E-score
CGAGCCCG	0.131
TAACTGAA	-0.0941
TTAGAAAA	-0.129
ACTTTTCG	0.194
CTGAGCTA	-0.0866
GCAGTGCA	-0.0741
ACCACGGA	-0.185
CACTTGTA	-0.0805
GTCAGCTA	-0.0445
GTATGGCA	0.185
CAGTATCA	-0.137
ATGCCACG	-0.18
CAGTTCAC	-0.0317
AGAGGCAC	-0.00593
CACACAAA	0.0375
GTGCGCGA	0.0402
ATTAACAG	0.0176
ATATTGTG	-0.104
TAAATATA	0.137
ACTGGCCT	0.0362
GCTTGGCA	-0.0392
ACGACAAG	0.277
GACAGTCC	-0.17
CTTCGAGA	-0.233
GTCAAAAA	-0.0745

Sequence	PBM E-score
AAAGTGAC	-0.128
CCTAGTCA	-0.0767
AGGTACGG	0.354
ACAGGCGG	-0.0908
CAGAGTAG	-0.0468
ATGACATG	-0.142
CGCTGATA	0.0257
ACGGCTGG	0.00912
CTATGCTC	-0.166
ATTAGGGA	-0.205
AAACGCTG	0.244
AAGGTGTC	-0.113
ACGGTAGT	0.0261
AATAGGGG	-0.0823
CGCAGGAG	-0.193
GCCCACAC	-0.263
TGCGGCAA	-0.127
GTAACCAC	0.0237
CATACTTC	-0.219
CTTCCTTC	-0.129
AGAAAGAT	0.0673
ATGCAGAA	-0.0454
GCAGTAAA	-0.0405
AGTTTTCC	0.221
AGCTTAAC	0.082

Sequence	PBM E-score
GCTGGCTA	-0.127
CCAGCGGG	-0.279
ATATGTAG	-0.299
AAAACACG	0.0627
ATGTGCAG	-0.211
CCTAGGGC	-0.357
ATTATTAC	0.018
CATGAATG	-0.14
ATATCATG	-0.171
CCTTCTAA	-0.188
CGAATACA	0.0785
AAAACGGC	0.102
CGGAACAA	0.0835
CGTGGGCC	-0.181
AGCAAAAT	0.101
CTGGACGA	-0.248
AGCTTCTC	0.119
GGTGGCGA	0.0876
CACATACC	-0.12
GAACTTAC	0.0659
GTCACGAA	0.014
CGGACAAA	0.0814
AGTCGGTC	0.145
AATGTTAC	0.13
CGGTCTTA	0.125

Sequence	PBM E-score
CAGTGAGA	-0.243
TCCAAACA	-0.213
CGCTTTTC	0.104
GACAAGAC	0.00471
AACGTTGT	0.184
CGAAGACG	-0.00194
CGATGTGA	0.14
ATACCTGG	-0.219
ATCTTGAA	-0.141
AGGGTACA	-0.0634
ACAGGGTC	-0.134
CGTCTTAA	0.18
GTTTATGA	0.137
CTCTGGCA	-0.24
CTTTTACC	0.113
TTCTTCAA	-0.0112
AATCAGCC	-0.0548
TAAGATAA	0.0173
CTGTTGTC	-0.103
ATAAGCTA	-0.0833
CGCCAGTC	-0.0455
ACTTGCAG	-0.103
CTTAACCC	-0.121
TTGAAAAA	-0.0218
AAAGTCTT	-0.0887

Sequence	PBM E-score
ACTCTACT	0.0626
ACGACGAA	0.375
AGAGAAGA	0.0763
CCCCCAGA	-0.198
ATTGCGTC	-0.199
CACCCAAC	-0.0957
AACTTATG	-0.0673
CGTAATTC	0.254
AGTATGTC	-0.0423
GCCCAAAC	0.186
GAAATATC	0.0721
ACCTACTC	-0.168
AGCCGGCC	-0.254
AAGTCAGA	-0.229
CACGGTCA	-0.185
AAGCTTGA	-0.144
AGGTAACT	-0.107
CCTCAAGA	-0.315
AAAGAGAA	-0.0251
CCCTTTCC	-0.242
ACCAACAA	-0.0689
GTATGCCA	-0.0323
ACTTTCCC	-0.277
CTTGTTTA	0.0235
AACGCGGT	0.102

Sequence	PBM E-score
CAATCTTA	0.065
CCGTGATC	-0.0603
ACCTTGCA	0.00498
ACCAGCGG	-0.301
TCAACGAA	0.249
ATGGCCAG	-0.163
AGCGAAAA	0.0608
AAGTAATA	0.112
CCAAGAAC	0.0408
AGTTCAAT	-0.0947
ACCTAATG	-0.304
CCGCCTAC	0.025
GTCCACAA	-0.215
GCACACAC	0.0452
CCCAAAAA	-0.157
TAATCGTA	0.42
TCCTGAGA	-0.207
AGAGGATC	-0.0201
ACGATCCG	0.303
ATTGCGTG	-0.00571
ACCACAAG	-0.345
CGGTCCGC	-0.0599
ATGTCGAG	-0.208
GGTCGAGA	-0.0156
TTAGCTAA	-0.00737

Sequence	PBM E-score
ACTACAAA	0.0136
GCGTACAC	0.33
ATCGGATG	0.111
ATTAGATC	-0.00471
GCAAGCTA	-0.109
CACCTACA	-0.172
AACTGACT	0.00051
GATTCTGA	0.082
ATCTTTAC	0.191
CAATACTG	-0.0693
CTTGCAGC	-0.167
AACGTAAG	0.0726
CACAACAC	0.0167
CAGTCCGG	-0.0759
ATTGCTCC	-0.0818
CTCCATTC	-0.176
CACAGTAC	0.0225
AAATCATT	-0.134
CTACGGTC	0.109
